Results: PubChem BioAssay AID1963576 (National Center for Advancing Translational Sciences (NCATS), 2024)
Hit rate of the full screen: of about 46,000 compounds, about 60 (0.1%) were called active. Another 3% or so got no clear call; they are omitted. The call rests on the fitted dose curve; in most records, active means well fitted inhibition curve with a large enough effect; inconclusive means small, poorly fitted or top-dose-only effect; inactive means no such curve, though single readings can be large or run the other way. The list shows a part of the results.

test: Primary qHTS assay for Inhibitors of ovarian cancer metastasis using an organotypic tumor microenvironment (TME) model.; further: nearly all actives have a fitted effect of over 65% in size; settings: SKOV3ip1-GFP adhesion/invasion on 3D omental model, fluorescence; series mostly up to 45.8 µM; activity change, negative = inhibition: at the top concentration
From the text: PI: Ernst Lengyel MD., Ph.D. Department of Obstetrics and Gynecology, Section of Gynecologic Oncology University of Chicago Medicine, Chicago, Illinois. The tumor microenvironment (TME) is a key determinant of metastatic efficiency. We performed a quantitative high-throughput screen (qHTS) of diverse medicinal chemistry tractable scaffolds (44,420 compounds) and pharmacologically active small molecules (386 compounds) using a layered organotypic, robust assay representing the ovarian cancer metastatic TME. This 3D model contains primary human mesothelial cells, fibroblasts, and extracellular matrix, to which fluorescently labeled ovarian cancer cells are added. Initially, 100 compounds inhibiting ovarian cancer adhesion/invasion to the 3D model in a dose-dependent manner were identified. Of those, eight compounds were confirmed active in five high-grade serous ovarian cancer cell lines and were further validated in secondary in vitro and in vivo biological assays. […] Specifically, NCGC00117362 and PP-121 inhibited ovarian cancer adhesion, invasion, and proliferation, whereas milciclib inhibited ovarian cancer invasion and proliferation. […] To evaluate the clinical potential of NCGC00117362, structure - activity relationship studies were performed. […] The three compounds identified have promise as therapeutics for prevention and treatment of ovarian cancer metastasis.
PROTOCOL TABLE (as described by Inglese J, Shamu CE and Guy RK. 2007) SEQUENCE No. (e.g., 1, 2, 3, etc.); […] (e.g., Cells, Incubation, Reagent, etc.); VALUE; DESCRIPTION. 1; Cells; 4 uL; primary human omental fibroblast, black, clear bottom, low base, 1536-well Aurora assay plate. 2; Incubation; 48 hr; 37C. 3; Cells; 3 uL; 1,200 SKOV3ip1-GFP cells. 4; Compounds; 23nL; acoustic dispenser. 5; Incubation; 2 hr; room temperature. 6; Incubation; 16 hr; 37C. 7; Wash; 5 uL; 1x PBS. 8; Fixing; 5 uL; 4% paraformaldehyde (PFA). 9; Incubation; 15 min; room temperature 10; Wash, 5 uL; 1x PBS. 11; Detection; Fluorescence, excitation filter 488 nm, emission filter 509 nm. NOTES (numbers refer to Sequence numbers above) 1. For the 1,536-well format, 40 primary human omental fibroblasts and 400 mesothelial cells were seeded with 0.02 µg fibronectin and 0.02 µg collagen type I in 4 µL of growth media (2.3 mm2; Supplementary Fig. S1A). 2. Assay plates were incubated for 48 hours at 37 C. 3. After incubation, 1,200 SKOV3ip1-GFP were seeded in 3 µL of serum-free media (growth media minus FBS) on top of primary human omental cells. 4. Compounds or controls were added to each well immediately after the addition of the cancer cells. Compounds were screened in four doses (0.36-46 µmol/L), and the plates contained the positive control (Tomatine) in eight doses (0.035-75 µmol/L) and DMSO (equal volume controls) 5 - 6. The plates were incubated at room temperature for 2 hours and then at 37 degrees C for 16 hours. 7 - 10. Following incubation, the media were aspirated and each well washed with PBS (5 µL) and then fixed with 4% paraformaldehyde (PFA; 5 µL). After 15 minutes, the PFA solution was aspirated, PBS (5 µL) was added. 11. The number of GFP-labeled cells analyzed using a fluorescent cytometer TTP LabTech Acumen eX3 using 488 nm excitation filter and 509 nm emission filter. Data was normalized to the DMSO treated for negative and Tomatine treated wells for positive control. REFERENCES: Inglese J, Shamu CE and Guy RK, Reporting data from high throughput screening of small molecule libraries, Nature Chemical Biology, 2007, 3(8): 438-441. doi.org/10.1038/nchembio0807-438. Yasgar A, Shinn P, Jadhav A, Auld DS, Michael S, Zheng W, Austin CP, Inglese J and Simeonov A, Compound Management for Quantitative High-Throughput Screening. J. Assoc. Lab. Auto., 2008, 13: 79-89. doi: 10.1016/j.jala.2007.12.004.

Compound	activity change, negative = inhibition	outcome
COc1ccccc1-c1nnc(C2CCN(C(=O)c3ccccc3C)CC2)o1	inactive: 12.4%	–
COc1ccc(N(CC(=O)Nc2cc(OC)cc(OC)c2)S(=O)(=O)c2c(C)noc2C)cc1	–	inactive
COc1cccc(-c2nc(CS(=O)(=O)CC(=O)Nc3cccc(C(C)=O)c3)c(C)o2)c1	inactive: -22.2%	–
COc1cc(CN(C(=O)c2ccc(OC(C)C)cc2)c2ccccn2)cc(OC)c1OC	inactive: -5.51%	–
COC(=O)c1ccc(NC(=O)C2CCN(c3ncnc4c3nc3n4CCCCC3)CC2)cc1	inactive: -3.98%	–
Cc1cc2c(cc1C1(c3ccc(C(=O)O)cn3)CC1)C(C)(C)CCC2(C)C	inactive: 2.01%	–
CCOC(=O)CSc1nc2ccc(NC(=O)c3ccc(Cl)cc3)cc2s1	inactive: -4.45%	–
COc1ccc(CCNc2ncnc3c2c(-c2ccccc2)cn3-c2ccc(Cl)cc2)cc1OC	–	inactive
CCOC(=O)c1cc(C)n(CC2CCC(C(=O)Nc3ccc(OC)cc3)CC2)c1C (centres undefined)	inactive: -7.59%	–
Fc1ccc(-c2cc3ncc4c(n3n2)-c2cc(Cl)ccc2OC4)cc1	–	inactive
COc1ccc(C)cc1NC(=O)c1cc(S(=O)(=O)N2CCC(C)CC2)ccc1F	inactive: 1.39%	–
CCOC(=O)c1ccccc1NC(=O)CSc1nnc(CC)n2c1cc1occc12	inactive: -2.05%	–
CCCCc1ccc(C(=O)Nc2ccc3nc(N4CCN(CC)CC4)cc(C)c3c2)cc1	inactive: -6.58%	–
Cc1cc(C)cc(Nc2cc(C(=O)NC3CCCCC3)c3ccccc3n2)c1	inactive: 4.44%	–
Cc1cc(Nc2nc3ccccc3c3nnc(C)n23)ccc1Br	inactive: 1.6%	–
Cc1cc(C)cc(NC(=O)CSc2c(C(C)C)cnc3c2c(=O)n(C)c(=O)n3C)c1	inactive: -5.44%	–
CCCCN(CC)CCNC(=O)c1cc2c(=O)[nH]c3ccccc3c2n1C	–	inactive
Cc1ccccc1OCC(=O)Nc1ccc(-c2nc3ncccc3o2)cc1	inactive: -4.93%	–
Cc1cccc(C(=O)N2CCc3cc(CNS(=O)(=O)c4ccc(Cl)s4)ccc32)c1	inactive: 3.58%	–
Cc1ccccc1Nc1ncnc2c1cnn2C	inactive: -0.325%	–
Cc1c(Cl)cccc1NC(=O)CN(CCc1ccccc1)S(=O)(=O)c1ccccc1	–	inactive
CCCc1nc2ccccc2n2c(-c3ccccc3)c3c(=O)n(C)c(=O)n(C)c3c12	inactive: -1.82%	–
Cc1ccccc1CN1C(=O)c2ccccc2Sc2ccc(C(=O)N3CCCC3)cc21	inactive: -5.53%	–
COc1ccc(C)cc1-n1nnc(-c2nc(-c3ccccc3Cl)no2)c1N	inactive: -10.5%	–
Cc1ccccc1NS(=O)(=O)c1ccc2[nH]cc(C(=O)N3CCCCC3)c(=O)c2c1	inactive: 0.671%	–

Compound	activity change, negative = inhibition	outcome
CCCCn1nc(NC(=O)c2cccc(Cl)c2)c2cc3ccccc3nc21	inactive: -2.22%	–
O=C(NCc1ccccc1)c1ccc(CSc2nc3cccnc3n2Cc2cccc(F)c2)cc1	inactive: 12.2%	–
O=C(NCc1ccc(F)cc1)c1ccc2c(O)c(S(=O)(=O)c3ccccc3)c(=O)[nH]c2c1	inactive: -1.93%	–
CCCCn1c(NCc2ccc(OC)cc2O)nc2ccccc21	inactive: 10.3%	–
Cc1ccc(-c2nnn3c2nc(NCCc2ccc(Cl)cc2)c2ccccc23)cc1	–	inactive
CC(C)c1ccc(C(=O)Nc2cc(-c3ccccc3F)nn2-c2ccccc2)cc1	inactive: -8.38%	–
CCN(C(=O)c1coc(=O)c2ccccc12)c1ccccc1C	inactive: 46.6%	–
CCCOc1ccc(CNC(=O)Cn2ncn3c(cc4sc(CC)cc43)c2=O)cc1	inactive: -6.43%	–
COc1ccc(Nc2cc(C(=O)NC3CCC(C)CC3)c3ccccc3n2)cc1OC (centres undefined)	inactive: -7.31%	–
CCOc1ccc(CNC(=O)c2ccc3nc(C(C)C)oc3c2)cc1	inactive: 6.49%	–
COC(=O)c1ccc(NC(=O)NCCn2nnc3cc(S(=O)(=O)N(C)C)ccc32)cc1	–	inactive
Cc1ccc(-c2nc3ccccn3c2Nc2ccccc2C)s1	–	inactive
O=C(c1ccc(C=Cc2n[nH]c3ccccc23)cc1)N1CCNCC1	inactive: 6.64%	–
Cc1c(C(=O)N2CCCCCC2)c(S(=O)(=O)NCc2ccc(Br)cc2)c(C)n1C	inactive: -4.17%	–
Cn1c(=O)c(=O)n(C)c2cc(S(=O)(=O)CCC(=O)Nc3ccc(F)cc3)ccc21	–	inactive
CCOc1ccccc1C(=O)Nc1c(C(=O)Nc2ccc(F)cc2)oc2ccccc12	inactive: -9.88%	–
CCc1ccc(S(=O)(=O)c2cn(C)c3cc(N4CCC(C)CC4)c(F)cc3c2=O)cc1	inactive: -18.4%	–
CCOC(=O)c1ccc(NC(=O)c2c(NCc3cccs3)sc3c2CCCC3)cc1	inactive: 0.163%	–
Cn1c(=O)n(C)c2cc(N3CCOCC3)c(NC(=O)c3ccccc3Br)cc21	inactive: 2.11%	–
Cc1ccc(C(=O)Nc2nnc(S(=O)(=O)N3c4ccccc4CC3C)s2)cc1 (centres undefined)	inactive: -5.11%	–
COc1ccc(NC(=O)c2ccco2)cc1NC(=O)COc1ccccc1	inactive: 5.01%	–
CCOc1ccc(NC(=O)c2cnn3c2NC(c2cccc(OC)c2)=CC3c2ccccc2)cc1 (centres undefined)	inactive: -0.328%	–
CCOC(=O)c1cc(OC(=O)c2ccc(C)cc2)n(-c2ccccc2)n1	–	inactive
Cc1ccc(C2=NN(CC(=O)NCCC(C)C)C(=O)CC2)cc1	inactive: -9.7%	–
